From the supplement of paper PMC10126150
Values marked as one replicate rest on one cluster of the flow cell; about a third of the high ones do not repeat.

Test system: ATP
Assay: switch fluorescence ratio, 500 uM ATP over buffer (Cy3 cluster intensity, sum of 5 cycles each) (fold (ratio)); higher = stronger signal-on switching upon ATP binding; sequences stand for … in TCGTCGGCAGCGTCAGATGTGTATAAGAGACAGTTTTTTTTTTTTTTTTTTTTTTTTT…TC
Conditions: aptamer strand: ATP DNA aptamer (quencher-CACCTGGGGGAGTATTGCGGAGGAAGG + anchor), 100 nM annealed; ATP concentration: 500 uM; one replicate
How it was run: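 The quencher-labelled ATP aptamer, at 100 nM, was annealed to Cy3-labelled switching-strand clusters on a modified Illumina MiSeq flow-cell. The clusters were imaged in selection buffer, then after 15 min with 500 uM ATP at 22 °C, and this buffer/ATP cycle ran five times with NaOH stripping and re-annealing between runs. Per-cluster fluorescence ratios, summed target-cycle over summed buffer-cycle Cy3 intensity, were averaged per switch-domain sequence. Clusters outside 100-1000 RFU were excluded.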
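Also: ATP exposure 15 min at 22 °C before imaging.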

Sequence: CGCGCGTAGG
- switch fluorescence ratio: 1.06

Sequence: CTATTTTCGT
- switch fluorescence ratio: 0.987

Sequence: GAATGGTTGG
- switch fluorescence ratio: 0.998

Sequence: CATCCTGGGT
- switch fluorescence ratio: 1.06

Sequence: TCGAGTCAAG
- switch fluorescence ratio: 1.07

Sequence: TTGAAGTTTA
- switch fluorescence ratio: 1

Sequence: ATGGATCGGC
- switch fluorescence ratio: 0.982

Sequence: AGTTGGCTAT
- switch fluorescence ratio: 0.99

Sequence: ACTATGCATC
- switch fluorescence ratio: 1.96

Sequence: GTAATTAGGT
- switch fluorescence ratio: 0.988

Sequence: TCCCACTCAC
- switch fluorescence ratio: 1.28

Sequence: AGGGGAGTGC
- switch fluorescence ratio: 0.977

Sequence: CCGGTTTTAG
- switch fluorescence ratio: 1.05

Sequence: ATCGAGGAGG
- switch fluorescence ratio: 0.979

Sequence: CGGTCCCAAG
- switch fluorescence ratio: 1.01

Sequence: GGGCCATAGG
- switch fluorescence ratio: 1.08

Sequence: TATGTCCCGC
- switch fluorescence ratio: 1.02

Sequence: GTAGTTGGTT
- switch fluorescence ratio: 0.99

Sequence: CAGGAACTAT
- switch fluorescence ratio: 0.944

Sequence: GGATTTAGCC
- switch fluorescence ratio: 1.05

Sequence: CTTTGAGGGT
- switch fluorescence ratio: 1

Sequence: TTACCCTCCC
- switch fluorescence ratio: 1.28

Sequence: GTTACAAGCT
- switch fluorescence ratio: 1.05

Sequence: GACTCTGCA
- switch fluorescence ratio: 4.04

Sequence: CTGGCTTAAA
- switch fluorescence ratio: 1.02

Sequence: GCACATAACA
- switch fluorescence ratio: 1.12

Sequence: AGGCATTGGA
- switch fluorescence ratio: 0.964

Sequence: TGCTCTGAAA
- switch fluorescence ratio: 1.34

Sequence: CTGGATGTGC
- switch fluorescence ratio: 0.979

Sequence: AAGCAGTAAC
- switch fluorescence ratio: 1.83

Sequence: GCGGCAGAAA
- switch fluorescence ratio: 0.999

Sequence: GAGATAGGGC
- switch fluorescence ratio: 0.997

Sequence: AAGCCGATGT
- switch fluorescence ratio: 0.985

Sequence: TTCCGGTCGG
- switch fluorescence ratio: 1.03

Sequence: GAACGCCTG
- switch fluorescence ratio: 0.998

Sequence: GCAGTTTCTA
- switch fluorescence ratio: 0.979

Sequence: TCTGTGTGAC
- switch fluorescence ratio: 0.995

Sequence: CTTGCGTTTT
- switch fluorescence ratio: 0.989

Sequence: GCTTACAGGG
- switch fluorescence ratio: 0.997

Sequence: ATGTTATGT
- switch fluorescence ratio: 1.01

Sequence: CCTCTGTGCG
- switch fluorescence ratio: 1.01

Sequence: AGAGATTG
- switch fluorescence ratio: 0.948

Sequence: CGTGAAGCGG
- switch fluorescence ratio: 0.965

Sequence: GAGTGCCATT
- switch fluorescence ratio: 1

Sequence: GATATCAAC
- switch fluorescence ratio: 0.953

Sequence: TATGCTGACG
- switch fluorescence ratio: 1.06

Sequence: GGCTATAGGA
- switch fluorescence ratio: 0.954

Sequence: ACTGGTGCAA
- switch fluorescence ratio: 0.976

Sequence: CGTGTTCTTG
- switch fluorescence ratio: 0.993

Sequence: AACCGCCGGC
- switch fluorescence ratio: 1.14

Sequence: CGATTCCCAG
- switch fluorescence ratio: 1.19

Sequence: GGTTAGTCTA
- switch fluorescence ratio: 0.981

Sequence: GGTTTAGGAT
- switch fluorescence ratio: 1.01

Sequence: GCCAGAGCCA
- switch fluorescence ratio: 1.01

Sequence: AGGCCGCGAC
- switch fluorescence ratio: 1.24

Sequence: TAAGCCAGTG
- switch fluorescence ratio: 1.07

Sequence: TTGACAACG
- switch fluorescence ratio: 0.941

Sequence: TACTCACAGC
- switch fluorescence ratio: 1.36

Sequence: TTCCCTTGTA
- switch fluorescence ratio: 0.958

Sequence: CCACAAAAAA
- switch fluorescence ratio: 1.03

Sequence: AACTATCCGG
- switch fluorescence ratio: 1.02

Sequence: TTGATACCAT
- switch fluorescence ratio: 1.01

Sequence: GTAAGTTCCG
- switch fluorescence ratio: 0.963

Sequence: TAGGGCTGAC
- switch fluorescence ratio: 1.16

Sequence: GAAGTTTGT
- switch fluorescence ratio: 1

Sequence: GATATGGAAC
- switch fluorescence ratio: 0.968

Sequence: GAGCACAATG
- switch fluorescence ratio: 1.07

Sequence: ATTTAACTCT
- switch fluorescence ratio: 1.03

Sequence: GCTTAGTCG
- switch fluorescence ratio: 0.923

Sequence: AATTATTTCT
- switch fluorescence ratio: 1.05

Sequence: TTCCATTGGG
- switch fluorescence ratio: 0.975

Sequence: ATCAACGATG
- switch fluorescence ratio: 1.01

Sequence: GAGTATTTTT
- switch fluorescence ratio: 1.03

Sequence: AGTACGAGTT
- switch fluorescence ratio: 0.979

Sequence: TATTACTTGG
- switch fluorescence ratio: 1

Sequence: TAGTATCTA
- switch fluorescence ratio: 1

Sequence: TGTTTCGGTA
- switch fluorescence ratio: 1.01

Sequence: GACCCTAGAC
- switch fluorescence ratio: 1.11

Sequence: GATATTGGAA
- switch fluorescence ratio: 0.965

Sequence: GAGCTTCACC
- switch fluorescence ratio: 0.995

Sequence: TTCAAATT
- switch fluorescence ratio: 1.02

Sequence: TCAGCATATT
- switch fluorescence ratio: 1.01

Sequence: AGATTTGGTG
- switch fluorescence ratio: 0.976

Sequence: TAATCGGATG
- switch fluorescence ratio: 0.98

Sequence: GTCATAACGT
- switch fluorescence ratio: 1.01

Sequence: ACTATCGTGG
- switch fluorescence ratio: 0.991

Sequence: GGAAGGTAGT
- switch fluorescence ratio: 1

Sequence: GCTAATGTAC
- switch fluorescence ratio: 1.26

Sequence: CACACCGGGT
- switch fluorescence ratio: 1.19

Sequence: GACGAAGTGC
- switch fluorescence ratio: 1.79

Sequence: GATTACATTA
- switch fluorescence ratio: 1.01

Sequence: AGTATGTTGC
- switch fluorescence ratio: 0.984

Sequence: ATTCGTACAT
- switch fluorescence ratio: 1.04

Sequence: AGGGTTCAAT
- switch fluorescence ratio: 1

Sequence: CTGTCCCGAT
- switch fluorescence ratio: 0.99

Sequence: GGACTAGACT
- switch fluorescence ratio: 1.04

Sequence: GAAGGGCG
- switch fluorescence ratio: 0.996

Sequence: CACTTATGCT
- switch fluorescence ratio: 0.988

Sequence: GAGTGGACAT
- switch fluorescence ratio: 1.03

Sequence: CGTTACTATC
- switch fluorescence ratio: 1.04

Sequence: CAACTTACAC
- switch fluorescence ratio: 1.32

Sequence: TTGTGCCAAA
- switch fluorescence ratio: 0.985

Sequence: AACTAAATTC
- switch fluorescence ratio: 1.01

Sequence: CCTTCCGTGG
- switch fluorescence ratio: 1.5

Sequence: AATCAGTGCC
- switch fluorescence ratio: 0.981

Sequence: TGTACCT
- switch fluorescence ratio: 1.27

Sequence: AGTTTCTCTT
- switch fluorescence ratio: 1.02

Sequence: TGACTCACAG
- switch fluorescence ratio: 0.956

Sequence: TTTTTATTT
- switch fluorescence ratio: 0.996

Sequence: ATCCTTTATC
- switch fluorescence ratio: 1.03

Sequence: CCAGAAGGAA
- switch fluorescence ratio: 1.05

Sequence: GCAGCTTTAG
- switch fluorescence ratio: 1.07

Sequence: CACAACAGGA
- switch fluorescence ratio: 1.01

Sequence: ACTATCGGCT
- switch fluorescence ratio: 1.01

Sequence: CTAGGATAG
- switch fluorescence ratio: 1.05

Sequence: TAATAGATA
- switch fluorescence ratio: 0.966

Sequence: AGATGCACCG
- switch fluorescence ratio: 1.18

Sequence: CTGTTACACT
- switch fluorescence ratio: 0.973

Sequence: AACCTTAACG
- switch fluorescence ratio: 1.17

Sequence: GAAAGCGCAG
- switch fluorescence ratio: 1.03

Sequence: GTCAGGCTTG
- switch fluorescence ratio: 1.02

Sequence: ATGGTATCTG
- switch fluorescence ratio: 0.972

Sequence: TTCGCAGGTA
- switch fluorescence ratio: 0.997

Sequence: TACGTACAAT
- switch fluorescence ratio: 1.46

Sequence: GTTACGACTT
- switch fluorescence ratio: 0.967

Sequence: CAGCGACACT
- switch fluorescence ratio: 1.34

Sequence: GTTGCGACTG
- switch fluorescence ratio: 1.02

Sequence: GAGAGTGACG
- switch fluorescence ratio: 0.99

Sequence: TCTAGTAGGT
- switch fluorescence ratio: 0.994

Sequence: TTAAGAAAGG
- switch fluorescence ratio: 0.994

Sequence: TCAGGTGTGC
- switch fluorescence ratio: 1.29

Sequence: TATCTTAAAC
- switch fluorescence ratio: 0.963

Sequence: TTGGTATAAT
- switch fluorescence ratio: 1.01

Sequence: TTTCGCGTTT
- switch fluorescence ratio: 0.988

Sequence: ATGAACATCA
- switch fluorescence ratio: 1.04

Sequence: GAATATGTGA
- switch fluorescence ratio: 0.994

Sequence: TGGTGACCGC
- switch fluorescence ratio: 1.05

Sequence: AGGTGTTGAA
- switch fluorescence ratio: 1

Sequence: CGCTCAACAA
- switch fluorescence ratio: 1.26

Sequence: GAGTCAAGGT
- switch fluorescence ratio: 1.01

Sequence: GGTGAGGACA
- switch fluorescence ratio: 1.02

Sequence: AGACGTACGA
- switch fluorescence ratio: 1.4

Sequence: AAGGACTGGG
- switch fluorescence ratio: 0.937

Sequence: CACTTAGGTA
- switch fluorescence ratio: 1.05

Sequence: CGGTTCTAT
- switch fluorescence ratio: 0.997

Sequence: CCAGTGGACG
- switch fluorescence ratio: 1.01

Sequence: AGACACGACT
- switch fluorescence ratio: 1.08

Sequence: TCTCAACCCT
- switch fluorescence ratio: 1.09

Sequence: TCGGGCATGA
- switch fluorescence ratio: 1.02

Sequence: ATGGACTTC
- switch fluorescence ratio: 1.01

Sequence: GGAGTATGTG
- switch fluorescence ratio: 0.974

Sequence: GGTGCCCATT
- switch fluorescence ratio: 0.973

Sequence: TCGTATTTCA
- switch fluorescence ratio: 0.989

Sequence: TCCTCTTGAC
- switch fluorescence ratio: 1.55

Sequence: CACATGTGCT
- switch fluorescence ratio: 0.985

Sequence: TTCGGGTGTC
- switch fluorescence ratio: 1

Sequence: CGTCAGCGTA
- switch fluorescence ratio: 0.996

Sequence: GATGGCTTAG
- switch fluorescence ratio: 0.959
